# Results taken from the supplement of paper PMC12217912.
# This is one part of the list. The full chains were built here from the parent and the listed change. Values near 0.05 are background.
# B1: TEV protease; numbered along this chain (parent)
# chain: MGESLFKGPRDYNPISSSICHLTNESDGHTTSLYGIGFGPFIITNKHLFRRNNGTLVVQSLHGVFKVKDTTTLQQHLVDGRDMIIIRMPKDFPPFPQKLKFREPQREERICLVTTNFQTKSMSSMVSDTSCTFPSGDGIFWKHWIQTKDGQCGSPLVSTRDGFIVGIHSASNFTNTNNYFTSVPKNFMELLTNQEAQQWVSGWRLNADSVLWGGHKVFMVKPEEPFQPVKEATQL
# Variants of: B1
# Assay: raw area under fraction-flipped curve 0-4 h after induction (AUC4h, not background-subtracted), DNA-recorder readout of cleavage of the substrate (dimensionless); higher = more cleavage of the substrate by the protease variant
# Settings: temperature: 34 °C; time window: 0-4 h after rhamnose induction
# Experimental: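 In vivo DNA recorder in E. coli TOP10(DE3) ΔrhaA at 34 °C. Each TEVp single-site mutant (parent TEVp 0) is paired with a single-site variant of the 7-mer TEVs (canonical ENLYFQ|S). The substrate sits between flexible linkers in a Bxb1-sfGFP-TEVs-SsrA fusion, so cleavage stabilises Bxb1 and speeds flipping of a recombination array, read by NGS. The value is the raw area under the fraction-flipped curve over 0-4 h after rhamnose induction (AUC4h), with ≥20 reads per time point. It is not background-subtracted; inactive controls average about 0.047.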
# 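Also: Bxb1 expression induced with 0.2% (w/v) L-rhamnose at OD600 near 0.5, cultures sampled hourly, flipped fraction per protease–substrate barcode pair counted by paired-end Illumina sequencing.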
Variant,area with substrate ENLYFAS,area with substrate ENLYFCS,area with substrate ENLYFES,area with substrate ENLYFFS,area with substrate ENLYFGS,area with substrate ENLYFHS,area with substrate ENLYFIS,area with substrate ENLYFKS,area with substrate ENLYFLS,area with substrate ENLYFMS,area with substrate ENLYFNS,area with substrate ENLYFPS,area with substrate ENLYFRS,area with substrate ENLYFTS,area with substrate ENLYFVS,area with substrate ENLYFYS,area with substrate ENLYFDS,area with substrate ENLYFSS,area with substrate ENLYFWS
MGEDLFKGPRDYNPISSSICHLTNESDGHTTSLYGIGFGPFIITNKHLFRRNNGTLVVQSLHGVFKVKDTTTLQQHLVDGRDMIIIRMPKDFPPFPQKLKFREPQREERICLVTTNFQTKSMSSMVSDTSCTFPSGDGIFWKHWIQTKDGQCGSPLVSTRDGFIVGIHSASNFTNTNNYFTSVPKNFMELLTNQEAQQWVSGWRLNADSVLWGGHKVFMVKPEEPFQPVKEATQL [S4D],0.0699,0.0429,0.0641,0.0709,0.0461,0.0614,0.0553,0.0589,0.0602,0.0656,0.0659,0.0552,0.0586,0.0621,0.0599,0.0542,–,–,–
MGESEFKGPRDYNPISSSICHLTNESDGHTTSLYGIGFGPFIITNKHLFRRNNGTLVVQSLHGVFKVKDTTTLQQHLVDGRDMIIIRMPKDFPPFPQKLKFREPQREERICLVTTNFQTKSMSSMVSDTSCTFPSGDGIFWKHWIQTKDGQCGSPLVSTRDGFIVGIHSASNFTNTNNYFTSVPKNFMELLTNQEAQQWVSGWRLNADSVLWGGHKVFMVKPEEPFQPVKEATQL [L5E],0.0614,0.0508,0.0625,0.0567,–,–,0.0477,0.0584,0.0528,0.0591,0.072,0.053,0.0513,–,0.0573,–,0.0735,0.0441,0.0547
MGESLFKGPKDYNPISSSICHLTNESDGHTTSLYGIGFGPFIITNKHLFRRNNGTLVVQSLHGVFKVKDTTTLQQHLVDGRDMIIIRMPKDFPPFPQKLKFREPQREERICLVTTNFQTKSMSSMVSDTSCTFPSGDGIFWKHWIQTKDGQCGSPLVSTRDGFIVGIHSASNFTNTNNYFTSVPKNFMELLTNQEAQQWVSGWRLNADSVLWGGHKVFMVKPEEPFQPVKEATQL [R10K],0.0511,0.0586,0.0663,0.0606,–,0.0694,0.0585,0.0601,–,0.0701,0.0651,0.0594,0.0555,0.0553,0.0557,–,–,0.0686,–
MGESLFKGPSDYNPISSSICHLTNESDGHTTSLYGIGFGPFIITNKHLFRRNNGTLVVQSLHGVFKVKDTTTLQQHLVDGRDMIIIRMPKDFPPFPQKLKFREPQREERICLVTTNFQTKSMSSMVSDTSCTFPSGDGIFWKHWIQTKDGQCGSPLVSTRDGFIVGIHSASNFTNTNNYFTSVPKNFMELLTNQEAQQWVSGWRLNADSVLWGGHKVFMVKPEEPFQPVKEATQL [R10S],0.0659,0.0553,0.0573,0.0537,0.0059,0.0679,0.0589,0.0594,0.0443,0.0651,0.0717,0.0579,0.0629,–,0.0414,–,0.0604,0.0611,0.0627
MGESLFKGPRWYNPISSSICHLTNESDGHTTSLYGIGFGPFIITNKHLFRRNNGTLVVQSLHGVFKVKDTTTLQQHLVDGRDMIIIRMPKDFPPFPQKLKFREPQREERICLVTTNFQTKSMSSMVSDTSCTFPSGDGIFWKHWIQTKDGQCGSPLVSTRDGFIVGIHSASNFTNTNNYFTSVPKNFMELLTNQEAQQWVSGWRLNADSVLWGGHKVFMVKPEEPFQPVKEATQL [D11W],0.0619,0.0608,0.066,0.0673,–,0.0585,0.0558,0.0499,0.0566,0.0738,0.034,0.0677,0.0682,0.0707,0.0598,–,0.0571,0.0503,0.0514
MGESLFKGPRDYSPISSSICHLTNESDGHTTSLYGIGFGPFIITNKHLFRRNNGTLVVQSLHGVFKVKDTTTLQQHLVDGRDMIIIRMPKDFPPFPQKLKFREPQREERICLVTTNFQTKSMSSMVSDTSCTFPSGDGIFWKHWIQTKDGQCGSPLVSTRDGFIVGIHSASNFTNTNNYFTSVPKNFMELLTNQEAQQWVSGWRLNADSVLWGGHKVFMVKPEEPFQPVKEATQL [N13S],0.0677,0.0695,0.0528,0.0693,0.0558,0.063,0.0572,0.0662,–,0.0644,0.0637,0.064,0.061,0.0487,–,0.0538,–,0.0604,0.0571
MGESLFKGPRDYTPISSSICHLTNESDGHTTSLYGIGFGPFIITNKHLFRRNNGTLVVQSLHGVFKVKDTTTLQQHLVDGRDMIIIRMPKDFPPFPQKLKFREPQREERICLVTTNFQTKSMSSMVSDTSCTFPSGDGIFWKHWIQTKDGQCGSPLVSTRDGFIVGIHSASNFTNTNNYFTSVPKNFMELLTNQEAQQWVSGWRLNADSVLWGGHKVFMVKPEEPFQPVKEATQL [N13T],0.057,0.0647,–,0.074,–,0.0507,0.0386,0.0597,0.0779,0.082,–,0.0753,0.051,0.051,0.0597,0.0543,0.107,0.0772,0.0616
MGESLFKGPRDYWPISSSICHLTNESDGHTTSLYGIGFGPFIITNKHLFRRNNGTLVVQSLHGVFKVKDTTTLQQHLVDGRDMIIIRMPKDFPPFPQKLKFREPQREERICLVTTNFQTKSMSSMVSDTSCTFPSGDGIFWKHWIQTKDGQCGSPLVSTRDGFIVGIHSASNFTNTNNYFTSVPKNFMELLTNQEAQQWVSGWRLNADSVLWGGHKVFMVKPEEPFQPVKEATQL [N13W],0.0633,0.0555,0.0785,0.0738,0.0592,0.0608,0.0531,0.0668,0.0616,0.0665,0.0712,0.0645,0.0612,0.0632,0.0605,0.0675,0.063,0.0545,0.0577
MGESLFKGPRDYNIISSSICHLTNESDGHTTSLYGIGFGPFIITNKHLFRRNNGTLVVQSLHGVFKVKDTTTLQQHLVDGRDMIIIRMPKDFPPFPQKLKFREPQREERICLVTTNFQTKSMSSMVSDTSCTFPSGDGIFWKHWIQTKDGQCGSPLVSTRDGFIVGIHSASNFTNTNNYFTSVPKNFMELLTNQEAQQWVSGWRLNADSVLWGGHKVFMVKPEEPFQPVKEATQL [P14I],0.0559,–,0.0558,0.0577,0.0554,0.0342,0.0606,0.0529,0.0996,0.0633,0.0616,0.0552,0.0571,0.0604,–,0.0702,0.0701,–,–
MGESLFKGPRDYNPIASSICHLTNESDGHTTSLYGIGFGPFIITNKHLFRRNNGTLVVQSLHGVFKVKDTTTLQQHLVDGRDMIIIRMPKDFPPFPQKLKFREPQREERICLVTTNFQTKSMSSMVSDTSCTFPSGDGIFWKHWIQTKDGQCGSPLVSTRDGFIVGIHSASNFTNTNNYFTSVPKNFMELLTNQEAQQWVSGWRLNADSVLWGGHKVFMVKPEEPFQPVKEATQL [S16A],0.0635,0.0687,0.0665,0.0675,0.0691,–,0.0524,0.0493,0.0614,0.0606,0.0677,0.0544,0.0663,0.0472,0.0593,–,0.0528,0.0549,0.0526
MGESLFKGPRDYNPICSSICHLTNESDGHTTSLYGIGFGPFIITNKHLFRRNNGTLVVQSLHGVFKVKDTTTLQQHLVDGRDMIIIRMPKDFPPFPQKLKFREPQREERICLVTTNFQTKSMSSMVSDTSCTFPSGDGIFWKHWIQTKDGQCGSPLVSTRDGFIVGIHSASNFTNTNNYFTSVPKNFMELLTNQEAQQWVSGWRLNADSVLWGGHKVFMVKPEEPFQPVKEATQL [S16C],0.0846,–,0.0713,0.0647,0.0678,–,0.0665,0.0782,–,0.0558,0.0647,0.056,–,0.0386,0.059,–,–,0.0627,0.0569
MGESLFKGPRDYNPIGSSICHLTNESDGHTTSLYGIGFGPFIITNKHLFRRNNGTLVVQSLHGVFKVKDTTTLQQHLVDGRDMIIIRMPKDFPPFPQKLKFREPQREERICLVTTNFQTKSMSSMVSDTSCTFPSGDGIFWKHWIQTKDGQCGSPLVSTRDGFIVGIHSASNFTNTNNYFTSVPKNFMELLTNQEAQQWVSGWRLNADSVLWGGHKVFMVKPEEPFQPVKEATQL [S16G],0.0699,0.0527,0.0682,0.065,0.0605,0.0686,0.0628,0.0703,–,0.0677,0.066,0.0552,–,0.0736,0.0392,0.0619,–,–,0.0638
MGESLFKGPRDYNPIHSSICHLTNESDGHTTSLYGIGFGPFIITNKHLFRRNNGTLVVQSLHGVFKVKDTTTLQQHLVDGRDMIIIRMPKDFPPFPQKLKFREPQREERICLVTTNFQTKSMSSMVSDTSCTFPSGDGIFWKHWIQTKDGQCGSPLVSTRDGFIVGIHSASNFTNTNNYFTSVPKNFMELLTNQEAQQWVSGWRLNADSVLWGGHKVFMVKPEEPFQPVKEATQL [S16H],0.0895,0.0667,0.0615,0.0712,0.0607,–,0.0475,0.065,0.0564,0.073,0.0571,0.0626,0.0596,0.0598,–,0.0594,–,0.0643,0.0555
MGESLFKGPRDYNPIISSICHLTNESDGHTTSLYGIGFGPFIITNKHLFRRNNGTLVVQSLHGVFKVKDTTTLQQHLVDGRDMIIIRMPKDFPPFPQKLKFREPQREERICLVTTNFQTKSMSSMVSDTSCTFPSGDGIFWKHWIQTKDGQCGSPLVSTRDGFIVGIHSASNFTNTNNYFTSVPKNFMELLTNQEAQQWVSGWRLNADSVLWGGHKVFMVKPEEPFQPVKEATQL [S16I],0.0587,0.0417,0.03,0.067,–,0.0674,0.0565,0.0627,–,0.0654,0.0581,0.062,0.0484,0.0584,–,–,0.0624,0.0615,0.0491
MGESLFKGPRDYNPILSSICHLTNESDGHTTSLYGIGFGPFIITNKHLFRRNNGTLVVQSLHGVFKVKDTTTLQQHLVDGRDMIIIRMPKDFPPFPQKLKFREPQREERICLVTTNFQTKSMSSMVSDTSCTFPSGDGIFWKHWIQTKDGQCGSPLVSTRDGFIVGIHSASNFTNTNNYFTSVPKNFMELLTNQEAQQWVSGWRLNADSVLWGGHKVFMVKPEEPFQPVKEATQL [S16L],0.0574,0.0632,0.0598,–,–,0.0652,0.0499,–,–,0.063,–,0.0379,–,0.0521,0.043,0.0646,–,–,0.0497
MGESLFKGPRDYNPIMSSICHLTNESDGHTTSLYGIGFGPFIITNKHLFRRNNGTLVVQSLHGVFKVKDTTTLQQHLVDGRDMIIIRMPKDFPPFPQKLKFREPQREERICLVTTNFQTKSMSSMVSDTSCTFPSGDGIFWKHWIQTKDGQCGSPLVSTRDGFIVGIHSASNFTNTNNYFTSVPKNFMELLTNQEAQQWVSGWRLNADSVLWGGHKVFMVKPEEPFQPVKEATQL [S16M],0.036,0.0634,0.0701,0.074,–,0.0877,0.06,0.0566,–,0.0655,0.0564,0.0578,0.0784,0.0651,0.0506,0.0541,0.08,–,0.0484
MGESLFKGPRDYNPINSSICHLTNESDGHTTSLYGIGFGPFIITNKHLFRRNNGTLVVQSLHGVFKVKDTTTLQQHLVDGRDMIIIRMPKDFPPFPQKLKFREPQREERICLVTTNFQTKSMSSMVSDTSCTFPSGDGIFWKHWIQTKDGQCGSPLVSTRDGFIVGIHSASNFTNTNNYFTSVPKNFMELLTNQEAQQWVSGWRLNADSVLWGGHKVFMVKPEEPFQPVKEATQL [S16N],0.0641,0.061,0.0581,0.0706,0.06,0.0521,0.0512,–,0.06,0.0613,0.0597,0.0511,–,0.0501,–,0.0626,0.0595,0.0529,0.0168
